Reference: PubChem BioAssay AID624417 (National Center for Advancing Translational Sciences (NCATS), 2012)
Hit rate of the full screen: of about 410,000 compounds, about 6,400 (1.6%) were called active. Inconclusive results, whose numbers are uncertain, are shown with a selection of clear calls. Calls come from the whole dose curve; as a rule, active = well fitted inhibition curve with a large enough effect; inconclusive = small, poorly fitted or top-dose-only effect; inactive = no such curve, though single readings can be large or run the other way. Potencies of inconclusive entries are left out as doubtful fits.

What follows are compounds tested against Glucagon-like peptide 1 receptor (Homo sapiens) (UniProt P43220) (assay: qHTS of GLP-1 Receptor Inverse Agonists (Inhibition Mode)). Conditions: HEK293 GLP-1R CRE-luciferase, luminescence, 24 h, GLP-1R form is constitutively active; activity change, negative = inhibition: at 38.3 µM (top of the series) unless noted.
Outline: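 Inverse agonists were sought by their lowering of basal cAMP reporter luciferase output in HEK293 cells stably carrying constitutively active human GLP-1R, after 24 h compound treatment.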
% is set by controls: 0 for no effect and ±100 for the full control effect; potency is the fitted concentration of half-maximal effect; tags give direction and shape of the fitted curve.
Note: nearly all actives have a fitted effect of over 55% in size.

UniProt P43220, sequence (P43220 whole entry, looked up): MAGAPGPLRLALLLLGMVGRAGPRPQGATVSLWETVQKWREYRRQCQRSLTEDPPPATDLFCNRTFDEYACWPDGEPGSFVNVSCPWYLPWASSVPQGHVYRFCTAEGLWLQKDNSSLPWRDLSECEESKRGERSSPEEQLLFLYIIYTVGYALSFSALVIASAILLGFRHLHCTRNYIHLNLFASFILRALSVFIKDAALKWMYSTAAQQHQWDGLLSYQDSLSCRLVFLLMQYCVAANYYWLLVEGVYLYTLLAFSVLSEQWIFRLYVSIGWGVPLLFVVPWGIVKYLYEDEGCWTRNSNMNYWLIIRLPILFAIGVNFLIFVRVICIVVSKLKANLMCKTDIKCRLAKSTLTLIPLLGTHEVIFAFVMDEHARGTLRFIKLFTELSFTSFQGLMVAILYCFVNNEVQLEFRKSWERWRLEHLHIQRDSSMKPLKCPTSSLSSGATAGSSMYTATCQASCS

| SMILES | Potency | activity change, negative = inhibition |
| --- | --- | --- |
| Cc1ccccc1CN(C)CC(=O)Nc1ccccc1-c1ccccc1 | inconclusive [inhibitor, single point] | – |
| O=C(N/N=C/c1ccc([N+](=O)[O-])s1)c1ccccc1Br | – | inactive: 2.92% |
| Cc1ccc(SC[C@H](c2ccccc2)N2CCN(CCc3ccccc3)CCC2=O)cc1 | inconclusive [inhibitor, single point] | – |
| CCC(C(=O)NCc1ccc2c(c1)CCN2C(=O)c1ccc(F)cc1)c1ccccc1 (configuration not stated) | – | inactive: -2.03% |
| Cc1ccc(-n2c(N)c(C#N)c(-c3ccc(Cl)cc3)c(C#N)c2=O)cc1 | inconclusive [inhibitor, full curve, poor fit] | – |
| CN(CCOCCOc1ccc(F)cc1)Cc1ccccc1 | inconclusive [inhibitor, partial curve] | – |
| O=C(CNC(=O)[C@@H]1Cc2ccccc2CN1)Nc1ccc2c(c1)OCCO2 | inconclusive [inhibitor, single point] | – |
| CC(=O)C(=Cc1ccc(-c2ccccc2)cc1)C(=O)c1ccccc1 | inconclusive [inhibitor, partial curve] | – |
| COCc1c(C(=O)N2CCN(Cc3nc4ccccc4s3)CC2)oc2ccccc12 | inconclusive [inhibitor, partial curve, poor fit] | – |
| Cc1cc(C)c(C#N)c(N2CCN(c3ccccc3)CC2)n1 | inconclusive [inhibitor, single point] | – |
| COCCn1c(N)c(C(=O)NCC2CCCO2)c2nc3ccccc3nc21 (configuration not stated) | – | inactive: -15.3% |
| O=C(NC(c1ccc2ccccc2n1)c1cccs1)C1CCN(Cc2cccc(C(F)(F)F)c2)CC1 (configuration not stated) | inconclusive [inhibitor, partial curve, poor fit] | – |
| CCn1ccnc1CN(C)Cc1nc(Cc2cccc(C(F)(F)F)c2)no1 | inconclusive [inhibitor, partial curve, poor fit] | – |
| CCNCCNC(=O)c1c(O)c2cccc3c2n(c1=O)CCC3 | inconclusive [inhibitor, single point] | – |
| CCCCc1c(O)nc2sccn2c1=O | – | inactive: 2.14% |
| c1ccc(-c2c(-c3ccccc3)n(Cc3ccco3)c3ncnc(NCCCn4ccnc4)c23)cc1 | inconclusive [inhibitor, partial curve, poor fit] | – |
| CCOc1ccc(OC(=O)NC(c2ccccc2)C(Cl)(Cl)Cl)cc1 (configuration not stated) | – | inactive: 5.07% |
| CCOC(=O)c1c(C)[nH]c(C)c1S(=O)(=O)N(C)CC(=O)N1CCN(c2cccc(Cl)c2)CC1 | – | inactive: -29.5% |
| O=C(NC1CCCCCC1)c1cccc(N2CCCC2=O)c1 | inconclusive [inhibitor, partial curve] | – |
| Cc1cc(C)n(-c2nc(SCCN(C)C)c3c4c(sc3n2)COC(C)(C)C4)n1 | inconclusive [inhibitor, single point] | – |
| COC(=O)c1ccccc1NC(=O)Cn1c(=O)n(CCCCC(=O)NCc2ccc3c(c2)OCO3)c(=O)c2ccccc21 | – | inactive: 10.7% |

| SMILES | Potency | activity change, negative = inhibition |
| --- | --- | --- |
| CCOc1ccc(CCNC(=O)Nc2ccccc2)cc1OCC | inconclusive [inhibitor, single point] | – |
| Cc1ccc(C2CCN(C(=S)NC3CCCCC3)C2)cc1 (configuration not stated) | inconclusive [inhibitor, partial curve, poor fit] | – |
| CNS(=O)(=O)c1cccc(C(=O)OCC(=O)N2CCN(C(=O)c3ccco3)CC2)c1 | inconclusive [inhibitor, full curve, poor fit] | – |
| O=C(CN1C(=O)NC2(CCCC2)C1=O)Nc1ccc(Cl)c(C(F)(F)F)c1 | inconclusive [inhibitor, partial curve, poor fit] | – |
| Cc1ccc(NC(=O)Cn2ncn3c(cc4ccccc43)c2=O)cc1C | – | inactive: -22.2% |
| Cc1noc2ncnc(Sc3ccccc3Cl)c12 | inconclusive [inhibitor, single point] | – |
| CCN(CC)S(=O)(=O)c1ccc(NC(=O)COc2c(OC)cccc2OC)cc1 | inconclusive [inhibitor, partial curve, poor fit] | – |
| O=C(Nc1cccc(-n2cccn2)c1)C1CCCN(Cc2cccc(F)c2F)C1 (configuration not stated) | inconclusive [inhibitor, single point] | – |
| COc1cccc(OCC(O)CN2CCN(c3ccc(F)cc3)CC2)c1 (configuration not stated) | inconclusive [inhibitor, partial curve] | – |
| Clc1cccc(-n2ncc3c(N4CCCCCC4)ncnc32)c1 | inconclusive [inhibitor, single point] | – |
| O=C1CCCCC1C(Nc1ccc(Cl)cc1)c1ccccc1 (configuration not stated) | inconclusive [inhibitor, partial curve, poor fit] | – |
| Cc1ccc(NC(=O)CSC2=C(C#N)C(c3ccco3)C3=C(CC(C)(C)CC3=O)N2)cc1 (configuration not stated) | inconclusive [inhibitor, partial curve, poor fit] | – |
| CCOc1ccc(OCCn2c(=S)[nH]c3ccccc32)cc1 | inconclusive [inhibitor, single point] | – |
| O=C(c1ccccc1)N1CCN(c2nc3ccc([N+](=O)[O-])cc3s2)CC1 | inconclusive [inhibitor, partial curve] | – |
| CC#CCCCC(=O)Nc1ccccc1C(=O)O | – | inactive: 6.68% |
| O=C(NCc1ccc(Cl)cc1)C1CCN(C(=O)c2ccc(Cl)cc2)CC1 | inconclusive [inhibitor, single point] | – |
| COc1ccccc1-c1csc(C(C)(NC(C)=O)c2ccccc2)n1 (configuration not stated) | – | inactive: 24% |
| COc1ccc2cc(CN(CC3CCCO3)C(=O)Nc3ccccc3OC)c(=O)[nH]c2c1 (configuration not stated) | inconclusive [inhibitor, full curve, poor fit] | – |
| CCOC(=O)c1cc(C)n(Cc2ccc(OCC)c(OC)c2)c1C | inconclusive [inhibitor, single point] | – |
| Cc1ccccc1SCC(=O)Nc1cc(C(F)(F)F)ccc1N1CCOCC1 | inconclusive [inhibitor, partial curve, poor fit] | – |
| Cc1ccc(Cn2c(=O)n(Cc3ccccc3Cl)c(=O)c3cccnc32)cc1 | – | inactive: 7.78% |
